Experimental data reported in PubChem BioAssay AID686979 (National Center for Advancing Translational Sciences (NCATS), 2013).
Screen size: about 420,000 compounds; about 50,000 (12%) were called active. The shares of active, inactive and inconclusive entries below differ from those in the screen. Calls come from the whole dose curve; as a rule, active = well fitted inhibition curve with a large enough effect; inconclusive = small, poorly fitted or top-dose-only effect; inactive = flat fitted curve, though single readings scatter. Potencies of inconclusive entries are left out as doubtful fits.

Test: qHTS for Inhibitors of human tyrosyl-DNA phosphodiesterase 1 (TDP1): qHTS in cells in presence of CPT; note: nearly all actives have a fitted effect of over 55% in size
Settings: chicken DT40 Tdp1-/-;hTDP1 cells + 20 nM CPT, ATP luminescence, 48 h; activity change, negative = growth inhibition: at 46.2 µM (top of the series) unless noted
Outline: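 Chicken DT40 Tdp1-/- cells complemented with human TDP1, 400 cells/well, exposed to compounds plus 20 nM camptothecin for at least 48 h at 37 C; viability read as ATP content by CellTiter-Glo luminescence.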
% is set by controls: 0 for no effect and ±100 for the full control effect; potency is the fitted concentration of half-maximal effect; tags give direction and shape of the fitted curve.

SMILES	Potency	activity change, negative = growth inhibition
C=CC(=O)Nc1cccc(Oc2ccnc3[nH]ccc23)c1	inconclusive [inhibitor, single point]	
CNC(=O)CC12CC3CC(CC(C3)C1)C2		inactive: -24%
Cc1ccc(Cl)cc1-n1nnc(-c2nsc(NC(=O)c3ccccc3Cl)n2)c1C	inconclusive [inhibitor, single point]	
CC(C)(C)S(=O)N1Cc2cc(=O)n(Cc3ccccc3)cc2[C@H]1CCO (stereo partly specified)		inactive: -3.92%
CCn1cc2nc(SCc3cccc(C(F)(F)F)c3)n(Cc3ccc(Cl)cc3)c(=O)c2n1	active: 14.6 µM	
COc1ccc(C)cc1NC(=O)N1CCC(CN2CCOCC2)CC1		inactive: 1.34%
COc1ccc(OC)c(N(CC(=O)N2CCN(c3cc(Cl)ccc3C)CC2)S(C)(=O)=O)c1	active: 14.6 µM	
CN(C(=O)COC(=O)c1ccccc1Cc1ccccc1)c1c(N)n(Cc2ccccc2)c(=O)[nH]c1=O		inactive: -4.89%
CC(C)(O)C(=O)NN(C(=O)c1ccccc1)c1cccc(Br)c1		inactive: -2.93%
Cc1ccc(N(CC(=O)N2CCN(c3cccc(Cl)c3)CC2)S(=O)(=O)c2c(C)noc2C)cc1	inconclusive [inhibitor, single point]	
COc1ccc(Cl)cc1NC(=O)NN1CCN(C)CC1		inactive: -10.3%
Cn1c(=O)c([N+](=O)[O-])c(Cl)c2ccccc21	active: 2.59 µM	
Cc1nn(C(C)(C)C)c(OC(=O)c2ccc3c(c2)OCO3)c1Sc1ccccc1	inconclusive [inhibitor, partial curve]	
Cc1[nH]c2ccccc2c1C(=O)C(=O)NCCOc1ccccc1		inactive: 11%
O=C(c1ccc(-c2ccccc2Cl)o1)N1CCCC(C(F)(F)F)C1 (stereo unspecified)	inconclusive [inhibitor, single point]	
Cn1c(=N)n(CC(=O)C(C)(C)C)c2ccccc21	inconclusive [inhibitor, single point]	
Cn1cccc1C(C#N)c1ncc(C(F)(F)F)cc1Cl (stereo unspecified)	inconclusive [inhibitor, single point]	
CCOC(=O)Cn1c(=N)n(CCOc2ccc(Br)cc2)c2ccccc21	active: 23.1 µM	
COc1ccc(CNC(=O)C(C)N2CCN(c3ccc(C(C)=O)cc3)CC2)cc1 (stereo unspecified)	inconclusive [inhibitor, partial curve]	
Cc1nc2ccc(NC(=O)c3cnc(Cl)c(Cl)c3)cc2s1	inconclusive [inhibitor, partial curve]	
COc1ccc(S(=O)(=O)N2CCOCC2)cc1C(=O)NCC(c1ccccc1)c1ccccc1	inconclusive [inhibitor, single point]	
CCC[C@H]1CC(=O)C=C(c2ccsc2)ON1C(=O)OC(C)(C)C	inconclusive [inhibitor, partial curve]	
CCOc1ccc2[nH]c(=O)c(CN(CCc3ccccc3)C(=O)N3CCOCC3)cc2c1	inconclusive [inhibitor, single point]	
COc1ccc(Cl)cc1NC(=O)NCCn1c(=O)oc2ccc(C)cc21	inconclusive [inhibitor, single point]	

SMILES	Potency	activity change, negative = growth inhibition
C=CCSc1cc(C)nc2c(-c3ccccc3)c(C)nn12	inconclusive [inhibitor, single point]	
COc1ccc(-n2c(Cn3c(=O)sc4ccccc43)nnc2SCC(=O)N2CCOCC2)cc1		inconclusive: -35% [inhibitor]
CC(C)(C)CC(=O)Nc1ccc(S(=O)(=O)N2CCCC2)cc1		inactive: -0.168%
COc1ccc(/C=N/NC(=O)c2ccc(NC(=O)c3ccccc3Br)cc2)cc1	inconclusive [inhibitor, single point]	
CCNC(=O)c1ccc(-n2nc(C)cc2-c2ccccc2)cc1	inconclusive [inhibitor, partial curve]	
CCCOc1ccc(F)cc1-c1cc(C(=O)NCc2cc(C(F)(F)F)cc(C(F)(F)F)c2)[nH]n1	inconclusive [inhibitor, single point]	
CCC(OC(=O)C(C)N1C(=O)C(=O)c2ccccc21)C(=O)Nc1ccccc1OC (stereo unspecified)	active: 4.61 µM	
C/C(=C\c1ccccc1F)C(=O)c1c(C)cc(C)[nH]c1=O		inactive: -23.8%
O=C(NCc1ccco1)C1Cc2ccccc2CN1S(=O)(=O)c1ccccc1F (stereo unspecified)	active: 18.4 µM	
Cc1c(C(=O)NCc2ccc(F)cc2)sc(=O)n1Cc1ccccc1F	inconclusive [inhibitor, single point]	
Cn1nc(C(C)(C)C)cc1C(=O)O		inactive: 0.26%
CCN(CC)CCn1c(=O)n(-c2ccc(Cl)cc2)c(=O)c2c3c(sc21)CN(C)CC3	active: 29.1 µM	
Cc1cccc(NC(=O)c2ccccc2O)c1C	active: 20.6 µM	
CC(CNC(=O)CN1C(=O)NC2(CCCCC2)C1=O)c1ccccc1 (stereo unspecified)		inactive: -1.45%
Cc1ccc(NC(=O)C2CC(=O)N(c3ccccc3Cl)C2)cc1S(=O)(=O)N1CCOCC1 (stereo unspecified)	inconclusive [inhibitor, full curve, poor fit]	
COc1ccc(-c2cn3nc(N4CCC(C(=O)Nc5ccccc5OC)CC4)sc3n2)cc1	inconclusive [inhibitor, partial curve, poor fit]	
CCN(CC)C(=O)c1sc2c(c1C)c(=O)n(-c1ccccc1)c(=O)n2Cc1c(C)cc(C)cc1C	inconclusive [inhibitor, single point]	
CCOC(=O)[C@@H]1[C@H]2COc3ccccc3[C@@H]2N2C(=O)N(c3cccc(Cl)c3)C(=O)[C@@]12C	inconclusive [inhibitor, partial curve]	
COc1cc2[nH]c(=O)n(CCCCCC(=O)N3CC=C(c4ccccc4)CC3)c(=O)c2cc1OC	active: 25.9 µM	
CC(C)C(NS(=O)(=O)c1ccc2c(c1)oc(=O)n2C)C(=O)N1CCN(c2cccc(Cl)c2)CC1 (stereo unspecified)	inconclusive [inhibitor, single point]	
O=C(NC(=S)Nc1ccc2c(c1)OCCO2)c1cccc(Br)c1	active: 14.6 µM	
C/C(=N\NC(N)=O)c1cccc(Cl)c1	inconclusive [inhibitor, single point]	
Cc1nc2sc(C(c3cccs3)N3CCN(c4cccc(Cl)c4)CC3)c(O)n2n1 (stereo unspecified)	inconclusive [inhibitor, single point]	
COc1ccccc1Nc1nnc(SCC(=O)NC(=O)Nc2ccc3c(c2)OCCO3)s1	inconclusive [inhibitor, single point]	

SMILES	Potency	activity change, negative = growth inhibition
CCc1c(C(=O)N/N=C/c2cccs2)nnn1-c1nonc1N		inactive: 8.8%
COCCNC(=O)Cn1nc(-c2ccc(Cl)cc2)c2ccccc2c1=O		inactive: 0.2%
CCN(CC)C(=O)c1ccc2c(c1)N(Cc1c(F)cccc1Cl)C(=O)c1ccccc1S2	inconclusive [inhibitor, single point]	
CC1(C(=O)OCC(=O)Nc2ccccc2)CC1(Cl)Cl (stereo unspecified)		inactive: 5.73%
Cn1c(=O)c2c(nc(NCCc3ccccc3)n2Cc2ccccc2)n(C)c1=O	active: 5.8 µM	
COc1ccc(S(=O)(=O)N2CCCC2C(=O)NCc2ccccc2Cl)cc1 (stereo unspecified)		inactive: -19%
C=CCN(C(=O)CCC(=O)Nc1cc(C)on1)C(C(=O)NC1CCCC1)c1ccc(CC)cc1 (stereo unspecified)	inconclusive [inhibitor, single point]	
COc1cccc(-c2nnc(-c3ccc(C(F)(F)F)cc3)o2)c1OC	inconclusive [inhibitor, partial curve]	
CN(C)CCNc1c(N)c(=O)oc2ccccc12	inconclusive [inhibitor, single point]	
CC1CCN(C(=O)C2CCCN(c3ncnc4c3nc3n4CCCCC3)C2)CC1 (stereo unspecified)	inconclusive [inhibitor, single point]	
COc1ccc(OC)c(/C=C/C(=O)Nc2ccc3c(c2)CCC3)c1	inconclusive [inhibitor, single point]	
COc1ccc(N2CC(NC(=O)c3cccs3)CC2=O)cc1 (stereo unspecified)		inactive: -16.9%
COc1ccc(NC(=O)C(Cc2c[nH]c3ccccc23)NC(=O)OC(C)(C)C)cc1 (stereo unspecified)	inconclusive [inhibitor, single point]	
O=C(COC(=O)/C=C/c1ccc(OC(F)F)cc1)NC(=O)NC1CCCCC1		inconclusive: -36% [inhibitor]
Cc1ccn2c(Nc3c(C)cccc3C)c(-c3ccsc3)nc2c1	active: 20.6 µM	
Cc1ccc(S(=O)(=O)N2CCOCC2)cc1C(=O)OCc1nnc(-c2ccccc2)o1	inconclusive [inhibitor, single point]	
Cc1cccc(NC(=O)CN2CCN(C(=O)c3cccc(-n4cnnn4)c3)CC2)c1C	inconclusive [inhibitor, partial curve]	
CC(OC(=O)c1cccnc1SCc1cc(=O)n2ccccc2n1)c1ccccn1 (stereo unspecified)		inconclusive: -39.6% [inhibitor]
CCn1c(SCC(=O)N(C)C)nc2cc(S(=O)(=O)N3CCOCC3)ccc21		inactive: -9.88%
CCOC(=O)C1=C(C)NC(C)=C(C(=O)OCC)C1C(=O)OCC(=O)N1CCOCC1		inactive: -1.33%
O=C(NCc1ccccn1)[C@H]1C[C@@H]1[C@H](NP(=O)(c1ccccc1)c1ccccc1)c1ccccc1	inconclusive [inhibitor, single point]	
COc1cc(OC)c(S(=O)(=O)Nc2ccccc2N2CCCCC2)cc1NC(C)=O		inactive: -2%
O=[N+]([O-])c1cccc(-c2ccc(C(=S)N3CCN(c4ccccc4)CC3)o2)c1	inconclusive [inhibitor, partial curve]	
